Assay results as given in the supplement of paper PMC7411054.
Structures can show the parent of a compound that is named as a salt. Only a part is listed here, and it is no random draw.

Experiments:
Details in all cases: treatment time: 24 h
A549-ACTB-RAB5A [1] = test: lowest phenotypically active concentration; higher = less potent
Outline: (§1)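 Fifteen gene-edited A549, HepG2 and WPMY1 reporter lines (BFP segmentation plus GFP and RFP/FusionRed markers) were treated at 0.3, 1, 3 or 9 µM for 24 h, four wells each, then imaged live. Live-cell features per well were normalised to DMSO control wells. Deviation required ≥3 of 4 wells beyond the 95th percentile of DMSO Euclidean distances, and reproducibility required median replicate Pearson correlation above the 95th percentile of non-replicates. Phenotypic activity needed both criteria.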

A549-CANX-COX4 [2] = test: as above
Outline: as §1

A549-GM130-SQSTM1 [3] = test: as above
Outline: as §1

A549-TP53BP1-CLTA [4] = test: as above
Outline: as §1

A549-TUBA1B-RELA [5] = test: as above
Outline: as §1

HepG2-ACTB-RAB5A = test: as above
Outline: as §1

HepG2-CANX-COX4 = test: as above
Outline: as §1

HepG2-GM130-SQSTM1 = test: as above
Outline: as §1

HepG2-TP53BP1-CLTA = test: as above
Outline: as §1

HepG2-TUBA1B-RELA = test: as above
Outline: as §1

WPMY1-ACTB-RAB5A = test: as above
Outline: as §1

WPMY1-CANX-COX4 = test: as above
Outline: as §1

WPMY1-GM130-SQSTM1 = test: as above
Outline: as §1

WPMY1-TP53BP1-CLTA = test: as above
Outline: as §1

WPMY1-TUBA1B-RELA = test: as above
Outline: as §1

A549-ACTB-RAB5A [6] = test: phenotypically active (imaging signature differs from DMSO and reproducible) at any of 0.3-9 uM (binary (1 = active, 0 = inactive)); higher = active
Outline: as §1

A549-CANX-COX4 [7] = test: as above
Outline: as §1

A549-GM130-SQSTM1 [8] = test: as above
Outline: as §1

A549-TP53BP1-CLTA [9] = test: as above
Outline: as §1

A549-TUBA1B-RELA [10] = test: as above
Outline: as §1

O=C1NC(=O)c2c1c(-c1ccccc1)cc1[nH]c3ccc(O)cc3c21
active: phenotypically active (A549-ACTB-RAB5A [6]) 1 | phenotypically active (A549-CANX-COX4 [7]) 1 | phenotypically active (A549-GM130-SQSTM1 [8]) 1 | phenotypically active (A549-TP53BP1-CLTA [9]) 1 | phenotypically active (A549-TUBA1B-RELA [10]) 1
1 µM: lowest phenotypically active concentration (A549-CANX-COX4 [2]) | lowest phenotypically active concentration (A549-GM130-SQSTM1 [3]) | lowest phenotypically active concentration (HepG2-ACTB-RAB5A)
3 µM: lowest phenotypically active concentration (WPMY1-TUBA1B-RELA)
≤ 0.3 µM: lowest phenotypically active concentration (A549-ACTB-RAB5A [1]) | lowest phenotypically active concentration (A549-TP53BP1-CLTA [4]) | lowest phenotypically active concentration (A549-TUBA1B-RELA [5]) | lowest phenotypically active concentration (HepG2-CANX-COX4) | lowest phenotypically active concentration (HepG2-GM130-SQSTM1) | lowest phenotypically active concentration (HepG2-TP53BP1-CLTA) | lowest phenotypically active concentration (HepG2-TUBA1B-RELA) | lowest phenotypically active concentration (WPMY1-ACTB-RAB5A) | lowest phenotypically active concentration (WPMY1-CANX-COX4) | lowest phenotypically active concentration (WPMY1-GM130-SQSTM1) | lowest phenotypically active concentration (WPMY1-TP53BP1-CLTA)

COc1cc(N2CCN(C(C)=O)CC2)ccc1Nc1ncc(Cl)c(Nc2ccc(N3CCN(C(C)=O)CC3)cc2OC)n1
3 µM: lowest phenotypically active concentration (A549-GM130-SQSTM1 [3]) | lowest phenotypically active concentration (A549-TUBA1B-RELA [5]) | lowest phenotypically active concentration (WPMY1-TP53BP1-CLTA)
active: phenotypically active (A549-ACTB-RAB5A [6]) 1 | phenotypically active (A549-CANX-COX4 [7]) 1 | phenotypically active (A549-GM130-SQSTM1 [8]) 1 | phenotypically active (A549-TP53BP1-CLTA [9]) 1 | phenotypically active (A549-TUBA1B-RELA [10]) 1
9 µM: lowest phenotypically active concentration (A549-ACTB-RAB5A [1]) | lowest phenotypically active concentration (A549-CANX-COX4 [2]) | lowest phenotypically active concentration (A549-TP53BP1-CLTA [4]) | lowest phenotypically active concentration (HepG2-ACTB-RAB5A) | lowest phenotypically active concentration (HepG2-CANX-COX4) | lowest phenotypically active concentration (HepG2-GM130-SQSTM1) | lowest phenotypically active concentration (HepG2-TP53BP1-CLTA) | lowest phenotypically active concentration (HepG2-TUBA1B-RELA) | lowest phenotypically active concentration (WPMY1-CANX-COX4) | lowest phenotypically active concentration (WPMY1-GM130-SQSTM1)

CN1[C@@H]2CC[C@H]1C[C@@H](OC(=O)C(O)c1ccccc1)C2 (stereo partly drawn) [Homatropine HBr]
inactive: phenotypically active (A549-ACTB-RAB5A [6]) 0 | phenotypically active (A549-CANX-COX4 [7]) 0 | phenotypically active (A549-GM130-SQSTM1 [8]) 0 | phenotypically active (A549-TP53BP1-CLTA [9]) 0 | phenotypically active (A549-TUBA1B-RELA [10]) 0

COC(=O)[C@H](CCCNC(=N)N)NS(=O)(=O)c1ccc(C)cc1 [TAME hydrochloride]
inactive: phenotypically active (A549-ACTB-RAB5A [6]) 0 | phenotypically active (A549-CANX-COX4 [7]) 0 | phenotypically active (A549-GM130-SQSTM1 [8]) 0 | phenotypically active (A549-TP53BP1-CLTA [9]) 0 | phenotypically active (A549-TUBA1B-RELA [10]) 0
